Substitutions are numbered along the chain they refer to. Names and notes keep the numbering of the source.
B1: TEM2-481D (ligand)
chain: MHHHHHHSGLRINSAKDDAAGQAIANRFTSNIKGLTQASRNAADGISIAQTTEGALNEINNNLQRVRELSVQATAGANADAALKAIQAEIQQRLEEIDRVSQQTQAAAVKVLSQDNAMAIQVGANDGAAITIDLQKIDVKSLGLDGFNVNSPGSTANPLASIDSALSKVDAVRSSLGAIQNRFDSAITNLGNTVTNLNSARSRIEDADYATEVSQMSKAQIDQQAGTSVLAQANQVPQNVLSLLR
B2: TEM2-482D (ligand)
chain: B1 chain with D222L, Q223D
B3: TEM2-D6D (ligand)
chain: B1 chain with D222L, Q223D, T227D
B4: 33TEMX (ligand)
chain: B1 chain with I24A, F28A, D222L, Q223D, V229T
B5: TEM2-486D (ligand)
chain: B1 chain with D222L, T227D
B6: TEM2-K1D (ligand)
chain: B1 chain with I221K
B7: TEM2-481H (ligand)
chain: B1 chain with D222H
B8: TEM1-AD (ligand)
chain: MSGLRINSAKDDAAGQAIANRADSNIKGLTQASRNAADGISIAQTTEGALNEINNNLQRVRELSVQATAGANADAALKAIQAEIQQRLEEIDRVSQQTQAAAVKVLSQDNAMAIQVGANDGAAITIDLQKIDVKSLGLDGFNVNSPGSTANPLASIDSALSKVDAVRSSLGAIQNRFDSAITNLGNTVTNLNSARSRIEDADYATEVSQMSKAQILQQAGTSVLAQANQVPQNVLSLLVPRGSHHHHHHG
B9: TEM1-49A (ligand)
chain: B8 chain with I18A, A22F, D23T
B10: TEM1-54D (ligand)
chain: B8 chain with A22F
B11: TEM1-53A (ligand)
chain: B8 chain with D23T
B12: TEM1-49T (ligand)
chain: B8 chain with I18T, A22F, D23T
B13: TEM2-480A (ligand)
chain: B8 chain with A22F, D23T, I215A
B14: TEM1-58E (ligand)
chain: B8 chain with A22F, D23T, K27E
B15: TEM2-AST (ligand)
chain: B8 chain with A22F, D23T, I215A, L216S, V223T
B16: TEM1-TD (ligand)
chain: B8 chain with A22T
B17: TEM1-SD (ligand)
chain: B8 chain with A22S
B18: TEM2-ASD (ligand)
chain: B8 chain with A22F, D23T, I215A, L216S, L224D
B19: TEM1-DD (ligand)
chain: B8 chain with A22F, S24D
B20: TEM2-488T (ligand)
chain: B8 chain with A22F, D23T, V223T
B21: TEM2-ADD (ligand)
chain: B8 chain with A22F, D23T, I215A, L216D, L224D
B22: TEM1-49E (ligand)
chain: B8 chain with I18E, A22F, D23T
B23: TEM2-ANT (ligand)
chain: B8 chain with A22F, D23T, I215A, L216N, V223T
B24: TEM2-ADT (ligand)
chain: B8 chain with A22F, D23T, I215A, L216D, V223T
B25: TEM3-TA (ligand)
chain: B8 chain with A22F, D23T, V234T, L235A
B26: TEM2-AND (ligand)
chain: B8 chain with A22F, D23T, I215A, L216N, L224D
B27: TEM3-AS (ligand)
chain: B8 chain with A22F, D23T, V234A, L235S
B28: TEM2-481A (ligand)
chain: B8 chain with A22F, D23T, L216A
B29: 33TXH (ligand)
chain: MLVPRGSHHHHHHSGLRINSAKDDAAGQAAANRATSNIKGLTQASRNAADGISIAQTTEGALNEINNNLQRVRELSVQATAGANADAALKAIQAEIQQRLEEIDRVSQQTQAAAVKVLSQDNAMAIQVGANDGAAITIDLQKIDVKSLGLDGFNVNSPGSTANPLASIDSALSKVDAVRSSLGAIQNRFDSAITNLGNTVTNLNSARSRIEDADYATEVSQMSKAQILDQAGTSTLAQANQVPQNVLSLLR
B30: TEM2492DG (ligand)
chain: MHHHHHHSGLRINSAKDDAAGQAIANRFTSNIKGLTQASRNAADGISIAQTTEGALNEINNNLQRVRELSVQATAGANADAALKAIQAEIQQRLEEIDRVSQQTQAAAVKVLSQDNAMAIQVGANDGAAITIDLQKIDVKSLGLDGFNVNSPGSTANPLASIDSALSKVDAVRSSLGAIQNRFDSAITNLGNTVTNLNSARSRIEDADYATEVSQMSKAQILQQAGDSVLAQG
B31: 33TXT (ligand)
chain: MHHHHHHLVPRGSGLRINSAKDDAAGQAAANRATSNIKGLTQASRNAADGISIAQTTEGALNEINNNLQRVRELSVQATAGANADAALKAIQAEIQQRLEEIDRVSQQTQAAAVKVLSQDNAMAIQVGANDGAAITIDLQKIDVKSLGLDGFNVNSPGSTANPLASIDSALSKVDAVRSSLGAIQNRFDSAITNLGNTVTNLNSARSRIEDADYATEVSQMSKAQILDQAGTSTLAQANQVPQNVLSLLR
B32: 33TXL (ligand)
chain: B31 chain with L8G, V9S
B33: 33TX3 (ligand)
chain: B31 chain with L8A, V9A

Target: human TLR5 (293-hTLR5-LacZ reporter cells) (human, UniProt O60602 21-858)
Assay: cell-based or functional assay

UniProt O60602, sequence (O60602 21-858): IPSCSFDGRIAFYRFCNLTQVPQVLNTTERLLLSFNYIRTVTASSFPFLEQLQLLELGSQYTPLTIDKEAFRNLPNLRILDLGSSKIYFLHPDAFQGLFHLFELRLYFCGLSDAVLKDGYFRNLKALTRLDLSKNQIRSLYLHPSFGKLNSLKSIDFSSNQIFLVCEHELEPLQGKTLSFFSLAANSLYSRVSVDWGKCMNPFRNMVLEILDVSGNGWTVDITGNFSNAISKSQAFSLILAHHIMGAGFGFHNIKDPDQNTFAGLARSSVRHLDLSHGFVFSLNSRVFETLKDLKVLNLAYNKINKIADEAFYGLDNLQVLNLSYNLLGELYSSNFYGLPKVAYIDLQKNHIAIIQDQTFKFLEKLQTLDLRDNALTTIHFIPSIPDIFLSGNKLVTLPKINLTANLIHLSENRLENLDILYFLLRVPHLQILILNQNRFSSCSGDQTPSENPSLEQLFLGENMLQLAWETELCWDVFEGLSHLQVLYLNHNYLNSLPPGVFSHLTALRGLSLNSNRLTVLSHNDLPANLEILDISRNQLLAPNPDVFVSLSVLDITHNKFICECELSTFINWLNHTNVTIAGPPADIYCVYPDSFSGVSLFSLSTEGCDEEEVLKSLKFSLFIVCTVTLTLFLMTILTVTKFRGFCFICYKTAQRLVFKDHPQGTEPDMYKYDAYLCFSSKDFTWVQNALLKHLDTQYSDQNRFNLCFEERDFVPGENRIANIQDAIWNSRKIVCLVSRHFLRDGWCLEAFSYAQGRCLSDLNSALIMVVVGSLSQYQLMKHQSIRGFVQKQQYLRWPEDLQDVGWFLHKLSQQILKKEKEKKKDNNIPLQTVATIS

Going from B1 to B2, the “EC50” value falls from over 10 ng/mL to 0.441 ng/mL.

Compared with B3, B4 is lower in “EC50” value: over 2.5 ng/mL for the first, 0.686 ng/mL for the second.

Going from B5 to B6, the “EC50” value rises from 0.479 ng/mL to over 10 ng/mL.

Compared with B7, B8 is lower in “EC50” value: over 10 ng/mL for the first, 0.089 ng/mL for the second.

B9 and B10 are within 1.5-fold of each other in “EC50” value: 0.113 ng/mL for the first, 0.146 ng/mL for the second.

B11 and B12 are within 1.5-fold of each other in “EC50” value: 0.112 ng/mL for the first, 0.137 ng/mL for the second.

Going from B13 to B14, the “EC50” value falls from 0.662 ng/mL to 0.181 ng/mL (3.7-fold).

Going from B15 to B16, the “EC50” value falls from over 10 ng/mL to 0.148 ng/mL.

First: B17
Second: B18
The “EC50” value of the first is lower: 0.117 ng/mL for the first, over 10 ng/mL for the second.

Compared with B19, B20 is 1.7-fold lower in “EC50” value: 0.171 ng/mL for the first, 0.103 ng/mL for the second.

First: B21
Second: B22
The “EC50” value of the first is higher: over 10 ng/mL for the first, 0.147 ng/mL for the second.

B23 and B24 cannot be ordered by “EC50” value: over 10 ng/mL for the first, over 10 ng/mL for the second.

Going from B25 to B26, the “EC50” value rises from 0.391 ng/mL to over 10 ng/mL.

First: B27
Second: B28
The “EC50” value of the first is 2.1-fold lower: 0.397 ng/mL for the first, 0.836 ng/mL for the second.

Compared with B29, B30 is higher in “EC50” value: 0.62 ng/mL for the first, over 2.5 ng/mL for the second.

First: B31
Second: B32
The “EC50” value of the first is 5.9-fold lower: 0.091 ng/mL for the first, 0.533 ng/mL for the second.

For B33, the “EC50” value was 0.473 ng/mL.

In order of falling “EC59(TEM)/EC50(33MX)” value:
1. B29  11.4 ratio
2. B4  10.4 ratio
3. B32  9.9 ratio
4. B28  9.7 ratio
5. B27  9.1 ratio
6. B33  8.8 ratio
7. B25  8.3 ratio
8. B13  7.5 ratio
9. B5  6.3 ratio
10. B2  5.8 ratio
11. B19  4 ratio
12. B16  3.2 ratio
13. B8  2.8 ratio
14. B17  2.8 ratio
15. B14  2 ratio
16. B10  1.7 ratio
17. B22  1.6 ratio
18. B12  1.5 ratio
19. B9  1.4 ratio
20. B11  1.4 ratio
21. B31  1.4 ratio
22. B20  1.2 ratio

Source: patent publication US20220024991A1 (GENOME PROTECTION, published 2022)
